# Results: PubChem BioAssay AID2528 (National Center for Advancing Translational Sciences (NCATS), 2010)
# “And” between values parts separate entries of the source, which are not always exact repeats. Equal entries are not always repeated. Among all 350,000 compounds or so, about 700 (0.2%) were called active. The call rests on the fitted dose curve; in most records, active means well fitted inhibition curve with a large enough effect; inconclusive means small, poorly fitted or top-dose-only effect; inactive means flat fitted curve, though single readings scatter. Only a part is listed here, and it is no random draw. More than one record can exist for a structure, and the calls need not agree.
# Molecular target: RecQ-like DNA helicase BLM (Homo sapiens) (UniProt P54132)
# UniProt P54132, sequence (P54132 whole entry, looked up): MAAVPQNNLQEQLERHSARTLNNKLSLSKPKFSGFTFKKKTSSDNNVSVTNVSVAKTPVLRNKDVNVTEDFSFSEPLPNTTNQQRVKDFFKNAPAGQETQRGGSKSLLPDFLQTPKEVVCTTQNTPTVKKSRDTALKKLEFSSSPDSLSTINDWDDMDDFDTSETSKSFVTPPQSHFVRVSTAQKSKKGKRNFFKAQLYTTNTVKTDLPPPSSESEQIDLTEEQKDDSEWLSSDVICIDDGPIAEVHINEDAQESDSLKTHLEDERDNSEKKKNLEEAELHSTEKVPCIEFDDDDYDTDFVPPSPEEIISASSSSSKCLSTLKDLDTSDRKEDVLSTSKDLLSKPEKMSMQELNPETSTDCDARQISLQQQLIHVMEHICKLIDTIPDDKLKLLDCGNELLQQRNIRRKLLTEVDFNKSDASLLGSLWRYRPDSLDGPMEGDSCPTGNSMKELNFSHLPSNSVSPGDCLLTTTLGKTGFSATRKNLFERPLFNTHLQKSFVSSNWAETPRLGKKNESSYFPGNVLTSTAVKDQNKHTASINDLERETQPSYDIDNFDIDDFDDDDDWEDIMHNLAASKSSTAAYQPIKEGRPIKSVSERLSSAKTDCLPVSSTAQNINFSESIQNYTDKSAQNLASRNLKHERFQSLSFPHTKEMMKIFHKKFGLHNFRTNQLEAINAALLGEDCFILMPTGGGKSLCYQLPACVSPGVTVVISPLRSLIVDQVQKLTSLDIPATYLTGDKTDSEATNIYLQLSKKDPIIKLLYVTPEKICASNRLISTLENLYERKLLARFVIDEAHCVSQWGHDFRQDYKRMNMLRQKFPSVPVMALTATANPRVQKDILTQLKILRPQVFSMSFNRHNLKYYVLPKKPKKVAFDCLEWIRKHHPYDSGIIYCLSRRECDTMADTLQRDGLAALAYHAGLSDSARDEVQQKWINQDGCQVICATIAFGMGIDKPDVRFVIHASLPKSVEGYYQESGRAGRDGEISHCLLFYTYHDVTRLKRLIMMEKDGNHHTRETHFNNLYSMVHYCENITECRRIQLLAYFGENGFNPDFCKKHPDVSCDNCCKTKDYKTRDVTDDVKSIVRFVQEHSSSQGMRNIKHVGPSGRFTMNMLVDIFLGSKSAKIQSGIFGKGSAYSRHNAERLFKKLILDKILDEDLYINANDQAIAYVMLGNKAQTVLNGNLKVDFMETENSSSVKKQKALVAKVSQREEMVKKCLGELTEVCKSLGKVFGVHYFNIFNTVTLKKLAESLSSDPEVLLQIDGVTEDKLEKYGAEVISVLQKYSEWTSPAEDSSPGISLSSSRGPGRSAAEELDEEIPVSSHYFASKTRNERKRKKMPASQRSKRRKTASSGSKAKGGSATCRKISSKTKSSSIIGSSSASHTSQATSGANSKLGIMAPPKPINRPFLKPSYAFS
# Assay: qHTS Assay for Inhibitors of Bloom's syndrome helicase (BLM); further: nearly all actives have a fitted effect of over 35% in size;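 on activity change, negative = inhibition: plate controls were vehicle for no effect and no enzyme for full effect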
# Details: recombinant BLM DNA unwinding, fluorescence dequenching; series mostly up to 56.1 µM; activity change, negative = inhibition: at the top concentration
# Potency means the concentration at half of the fitted maximal effect.
SMILES,"activity change, negative = inhibition",Potency
O=C1C(O)=C(O)C(=O)C(O)=C1O,inactive: -18.3% [at 21.4 µM],–
COc1ccc2c(c1)C(=NNC(=O)c1ccccn1)c1cc(OC)ccc1-2,–,active: 10 µM
CC[C@@H]1Cc2cc(O)ccc2C2=C1c1ccc(O)cc1C[C@H]2CC,inactive: -2.78%,–
Oc1cc(O)cc(/C=C/c2ccc(O)c(O)c2)c1,inactive: -12.7%,–
O=C(O)CSc1cc(C(=O)c2cc(F)ccc2O)cn2c(=O)c3c(-c4ccccc4)csc3nc12,–,active: 25.1 µM
Nc1nnc(-c2cccc(Cl)c2Cl)c(N)n1,–,inactive
CC/C=C\C/C=C\C/C=C\CCCCCCCC(=O)O,–,inactive
Oc1cc(O)c2c(c1)OC(c1ccc(O)c(O)c1)C(O)C2 (stereo not drawn),inactive: -16%,–
CCC(C)n1c(NC(=O)c2ccccc2)c(C#N)c2nc3ccccc3nc21 (stereo not drawn),–,active: 10 µM
COc1ccc(-c2[nH]n(-c3ccc([N+](=O)[O-])cc3)c(=O)c2C=NCc2ccncc2)cc1,–,active: 7.94 µM
CN(C)[C@@H]1C(=O)C(C(=O)NCN2CCCC2)=C(O)[C@@]2(O)C(=O)C3=C(O)c4c(O)cccc4[C@@](C)(O)C3CC12 (stereo partly drawn),–,active: 14.1 µM
NC(C(=O)NC1C(=O)N2C(C(=O)O)=C(Cl)CSC12)c1ccccc1 (stereo not drawn),inactive: 6.72%,–
Cc1ccc(CNc2ccc(O)cc2)cc1,–,active: 25.1 µM
O=c1[nH]nc(CNc2ccc(O)cc2)c2ccccc12,–,active: 35.5 µM
CCCCC1C(=O)N(c2ccccc2)N(c2ccccc2)C1=O,–,inactive
CC1=CC(=O)c2ccccc2C1=O,–,inactive and active: 17.8 µM
O=C(O)Cc1ccc(O)c(O)c1,inactive: -1.4%,–
CNC(=O)[C@H]1O[C@H](n2cnc3c(NCc4cccc(I)c4)ncnc32)[C@@H](O)[C@@H]1O,inactive: -0.208%,–
CC(Cc1ccc(O)c(O)c1)C(C)Cc1ccc(O)c(O)c1 (stereo not drawn),–,inactive
COc1cccc(/C=N/NC(=O)c2cc3cc([N+](=O)[O-])ccc3s2)c1O,–,active: 15.8 µM
c1ccc2c(c1)CCC[C@@H]2C1=NCCN1,inactive: 0.62%,–
CNCC[C@@H](Oc1ccccc1C)c1ccccc1,inactive: 7.73%,–
COc1ccccc1-n1cnc2c(c1=O)c1nc3ccccc3nc1n2-c1ccc(C)cc1,–,active: 10 µM
